{"source": "PubChem BioAssay AID588342", "about": "(National Center for Advancing Translational Sciences (NCATS), 2011)", "note": "Among all 360,000 compounds or so, about 25,000 (6.9%) were called active. Inconclusive results, whose numbers are uncertain, are shown with a selection of clear calls. Calls come from the whole dose curve; as a rule, active = well fitted inhibition curve with a large enough effect; inconclusive = small, poorly fitted or top-dose-only effect; inactive = flat fitted curve, though single readings scatter. Where the call is inconclusive, the potency comes from a doubtful curve fit. Potency is the fitted concentration of half-maximal effect; tags give direction and shape of the fitted curve."}
{"target": "Luciferin 4-monooxygenase (Photinus pyralis) (UniProt P08659)", "sequence (P08659 whole entry, looked up)": "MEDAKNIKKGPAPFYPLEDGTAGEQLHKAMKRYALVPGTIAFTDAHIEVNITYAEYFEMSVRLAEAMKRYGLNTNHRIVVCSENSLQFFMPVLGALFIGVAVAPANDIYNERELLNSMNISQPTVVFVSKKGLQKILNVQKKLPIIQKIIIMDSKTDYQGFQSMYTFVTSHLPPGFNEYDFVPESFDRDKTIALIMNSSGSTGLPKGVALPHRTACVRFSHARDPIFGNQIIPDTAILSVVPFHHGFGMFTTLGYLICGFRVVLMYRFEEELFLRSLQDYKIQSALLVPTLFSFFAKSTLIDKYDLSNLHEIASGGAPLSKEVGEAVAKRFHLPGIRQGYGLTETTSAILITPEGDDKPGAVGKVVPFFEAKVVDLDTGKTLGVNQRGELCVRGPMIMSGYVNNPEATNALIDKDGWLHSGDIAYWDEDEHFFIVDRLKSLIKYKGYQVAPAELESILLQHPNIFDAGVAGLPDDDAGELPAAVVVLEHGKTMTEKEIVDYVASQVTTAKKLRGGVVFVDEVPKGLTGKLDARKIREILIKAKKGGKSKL", "test": "qHTS profiling assay for firefly luciferase inhibitor/activator using purifed enzyme and Km concentrations of substrates (counterscreen for miR-21 project); note: nearly all actives have a fitted effect of over 55% in size;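 for activity change, negative = inhibition: plate controls were vehicle for no effect and reference inhibitor for full effect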", "conditions": "purified FLuc, luminescence inhibition; series mostly up to 57.5 µM; activity change, negative = inhibition: at the top concentration", "outline": "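Biochemical qHTS of compounds, final roughly 60 µM downward over six points, against 10 nM purified firefly luciferase using Km concentrations of substrates (10 uM D-luciferin, 10 uM ATP) in Tris acetate pH 7.5 buffer; luminescence output.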"}
{"smiles": "O=C(CN1C(=O)S/C(=C\\c2ccc(O)cc2)C1=O)c1ccccc1", "Potency": "inconclusive: 30.1 µM [inhibitor, single point]"}
{"smiles": "CC1CC1C(=O)OCC(=O)NNC(=O)c1ccc([N+](=O)[O-])cc1", "note": "(stereo not given)", "activity change, negative = inhibition": "inactive: 2.7%"}
{"smiles": "CC1(C)O[C@@H]2[C@H](O1)[C@@H](COS(=O)(=O)O)O[C@H]2n1cnc2c(=O)[nH]cnc21", "activity change, negative = inhibition": "inactive: -0.661%"}
{"smiles": "N/C(=N\\OC(=O)c1ccc2c(c1)OCO2)c1ccc(Br)cc1", "Potency": "active: 1.69 µM"}
{"smiles": "COc1cc(/C=C/c2nc(C#N)c(N3CCCCC3)o2)cc(OC)c1OC", "Potency": "inconclusive: 6.75 µM [inhibitor, partial curve, poor fit]"}
{"smiles": "COc1cc(C(=O)Nc2ccc3c(c2)nc(C)n3C)cc(OC)c1OC", "Potency": "active: 21.3 µM"}
{"smiles": "CC(C)NC(=O)CN1CCN(C(=O)c2ccc3oc(CCCc4ccccc4)nc3c2)CC1", "activity change, negative = inhibition": "inactive: -4.92%"}
{"smiles": "Cc1ccc(C)c(Nc2cc(C(=O)NCc3cccnc3)c3ccccc3n2)c1", "Potency": "inconclusive: 37.9 µM [inhibitor, partial curve, poor fit]"}
{"smiles": "COc1ccc2[nH]c3c(N4CCc5ccccc5C4)ncnc3c2c1", "Potency": "inconclusive: 19 µM [inhibitor, partial curve]"}
{"smiles": "COc1cccc(CNC(=O)COC(=O)CCCNC(=O)c2ccc(Cl)cc2)c1", "Potency": "inconclusive: 37.9 µM [inhibitor, partial curve, poor fit]"}
{"smiles": "COc1cc(CNc2ccc(N3CCN(C(C)=O)CC3)cc2)ccc1OCc1ccc(F)cc1", "Potency": "inconclusive: 23.9 µM [inhibitor, partial curve, poor fit]"}
{"smiles": "COc1ccccc1N1CCN(C(=O)c2cc(-c3ccc(C)cc3)on2)CC1", "Potency": "inconclusive: 37.9 µM [inhibitor, partial curve, poor fit]"}
{"smiles": "CC1(C)CC(=O)C=C(NCCc2c[nH]c3ccccc23)C1", "Potency": "inconclusive: 21.3 µM [inhibitor, single point]"}
{"smiles": "COC(=O)CN1C(=O)CSc2ccc(S(=O)(=O)Nc3cccc(Br)c3)cc21", "Potency": "inconclusive: 23.9 µM [inhibitor, partial curve, poor fit]"}
{"smiles": "O=C(Nc1cccc(S(=O)(=O)Nc2ccc(Cl)cc2)c1)c1cc2c(s1)CCCC2", "Potency": "active: 15.1 µM"}
{"smiles": "CSc1cc(-c2ccc(Cl)cc2)c(C(=O)N2CCCC2)s1", "activity change, negative = inhibition": "inactive: 0.692%"}
{"smiles": "O=C(O)c1ccc(NC2=C(Cl)C(=O)c3ccccc3C2=O)cc1", "Potency": "inconclusive: 26.9 µM [inhibitor, single point]"}
{"smiles": "COC(=O)c1ccccc1NC(=O)c1ccc(COc2ccc3c(c2)CCC3)cc1", "Potency": "inconclusive: 21.3 µM [inhibitor, partial curve, poor fit]"}
{"smiles": "O=c1[nH]c(SCc2ccc([N+](=O)[O-])cc2)nc2[nH]ncc12", "Potency": "inconclusive: 16.9 µM [inhibitor, partial curve]"}
{"smiles": "COc1cccc2sc3ccc(NCCC4CCCN4C)cc3c(=O)c12", "note": "(stereo not given)", "Potency": "inconclusive: 15.1 µM [inhibitor, partial curve]"}
{"smiles": "Cc1cc(NC(=O)c2cc(-c3cccc(Cl)c3)on2)nn1Cc1ccc(Cl)cc1", "activity change, negative = inhibition": "inactive: -2.49%"}
{"smiles": "O=C(O)C1Nc2c(O)cc(Cl)c([N+](=O)[O-])c2C2C=CCC12", "note": "(stereo not given)", "Potency": "inconclusive: 13.5 µM [inhibitor, partial curve]"}
{"smiles": "Nc1nnc(SCC(=O)NC2CCCCCC2)s1", "activity change, negative = inhibition": "inactive: 5.75%"}
{"smiles": "CC(C)c1ccc(NC(=S)N2CCN(C)CC2)cc1", "Potency": "inconclusive: 26.9 µM [inhibitor, single point]"}
{"smiles": "Cc1ccsc1/C=N/NC(=O)c1cccnc1", "Potency": "inconclusive: 21.3 µM [inhibitor, partial curve, poor fit]"}
{"smiles": "COc1cc(/C=C2\\C(=O)NN(c3ccc(C)cc3)C2=O)cc([N+](=O)[O-])c1O", "Potency": "active: 26.9 µM"}
{"smiles": "COC(=O)c1sc(NC(=O)COc2ccc(C)cc2)nc1C", "Potency": "active: 16.9 µM"}
{"smiles": "Cc1nn(CC(=O)NCc2ccc(N(C)C)cc2)c(=O)c2c(C)n(-c3ccc(Cl)cc3)nc12", "activity change, negative = inhibition": "inactive: -8.59%"}
{"smiles": "O=C(NCc1ccc(C(=O)O)cc1)OCc1ccccc1", "Potency": "inconclusive: 23.9 µM [inhibitor, single point]"}
{"smiles": "CC(Oc1ccccc1)C(=O)Nc1nnc(C2CCCCC2)s1", "note": "(stereo not given)", "Potency": "inconclusive: 30.1 µM [inhibitor, single point]"}
{"smiles": "Cc1nc2cccnc2n1C1CCN(S(=O)(=O)N(C)C)CC1", "activity change, negative = inhibition": "inactive: 2.19%"}
{"smiles": "O=C(OCC(=O)N1CCOCC1)c1ccccc1SCC(=O)N1CCCC1", "Potency": "inconclusive: 21.3 µM [inhibitor, partial curve, poor fit]"}
{"smiles": "CC(=O)Nc1ccc(-n2c(CCC(=O)O)ccc2-c2ccc(Br)cc2)cc1", "Potency": "inconclusive: 13.5 µM [inhibitor, partial curve]"}
{"smiles": "CCOC(=O)c1cnc2cc(-c3ccc(C(C)(C)C)cc3)nn2c1N", "Potency": "inconclusive: 1.69 µM [inhibitor, partial curve, poor fit]"}
{"smiles": "Cc1c2c(nc3c(C)cccc13)OC(C)C2", "note": "(stereo not given)", "Potency": "inconclusive: 37.9 µM [inhibitor, partial curve, poor fit]"}
{"smiles": "CCCCOc1ccc(C(=O)NCC(=O)NCC(c2ccc(F)cc2)N2CCOCC2)cc1", "note": "(stereo not given)", "activity change, negative = inhibition": "inactive: 3.47%"}
{"smiles": "CC1CCN(CCCOc2ccc(OCc3ccccc3)cc2)CC1", "Potency": "inconclusive: 26.9 µM [inhibitor, partial curve, poor fit]"}
{"smiles": "COc1cc2c(cc1OC)C(C(=O)NC(C)c1ccccc1)CC(=O)N2", "note": "(stereo not given)", "activity change, negative = inhibition": "inactive: 1.2%"}
{"smiles": "CCc1ccc(-c2[nH]nc3nc(-c4ccc(OC)cc4)cc(C(=O)NCCCOC)c23)cc1", "activity change, negative = inhibition": "inactive: -0.849%"}
{"smiles": "CC1(C)NC(=O)N(CCOCCOc2ccc3ccccc3c2Br)C1=O", "Potency": "inconclusive: 23.9 µM [inhibitor, partial curve]"}
{"smiles": "COc1ccccc1N1CCN(C(=O)c2ccc(-c3nc4ccccc4s3)o2)CC1", "Potency": "active: 13.5 µM"}
{"smiles": "Cc1ccccc1N=C1Nc2ccccc2CS1", "Potency": "active: 4.78 µM"}
{"smiles": "CCN(CC)C(=O)N1c2ccccc2C=Cc2ccccc21", "activity change, negative = inhibition": "inactive: 0.994%"}
{"smiles": "CCOC(=O)c1cc(-c2ccc(C)o2)n[nH]1", "Potency": "inconclusive: 37.9 µM [inhibitor, partial curve, poor fit]"}
{"smiles": "CN(C)CCn1c2c(c(SCC(=O)Nc3ccc4c(c3)OCCO4)nc1=O)CCCC2", "activity change, negative = inhibition": "inactive: 2.67%"}
